Reference: patent publication US20240360076A1, “NONIONIC SURFACTANTS” (priority 2023, published 2024)

Experimental: DS 13 was subject to accelerated stability conditions (40° C.) with lyophilized material for one and two months (FIG. 5B). At each time point, material was dissolved in water and analyzed by HPLC.

CCCCCCCCCCC(=O)N(CCOCCOCCOCCOC)CCOCCOCCOCCOC [DS13]
corresponding stability at room temperature: 4 months
